Publication PMC12136788
The list shows a part of the results.

T1: UNK ZnF1-3 (human, UniProt Q9C0B0 31-174)
T1 sequence: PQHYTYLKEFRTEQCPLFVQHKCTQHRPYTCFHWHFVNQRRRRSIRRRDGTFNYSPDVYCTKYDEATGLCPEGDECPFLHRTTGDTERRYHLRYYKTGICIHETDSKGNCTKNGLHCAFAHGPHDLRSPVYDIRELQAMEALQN

B1: chr20:54972846:54972847:+_ENSG00000101138_ENST00000217109|hu_mus|FALSE|FALSE (ssRNA)
RNA: GGGAGUUCUACAGUCCGACGAUCGGCUUCCUGAAUGUAUUUGAAAGCUCUUUUUGCAGACGGUUUGGAAUAAUCGAACAAUUUCAGAGUAUAAUCCCUUGAGCCCGAGGCCAGGAUCUGUUCUGUUGGGUGAAAAGCAAGACACAACAGAGGAUUGAGCAUCA
B2: chr1:90180492:90180493:+_ENSG00000171488_ENST00000370454|hu_hu|FALSE|FALSE (ssRNA)
RNA: GGGAGUUCUACAGUCCGACGAUCUUUCAUUUGCUCCCGGACGUCAGAAGGCAGAGUUUCAAACAGAGCAUCUUCUACAACUAAACCAGCUCGCUUCAGAGCCCGACAGUCACCCAGUUCAGGAGGGAGGAUUUCAAAGUGAUUCAACAGAGGAUUGAGCAUCA
B3: chr1:39494447:39494448:+_ENSG00000168653_ENST00000372967|hu_mus|hu_hu_hu_mus_False|8_98 (ssRNA)
RNA: GGGAGUUCUACAGUCCGACGAUCGCACCGAGCGGCGAUCUUGUAGGGCUGUUCUGCGCUUAGGAACAUAAAGUGCCGGUCCAGGCUGAUGCCCAGCUUUUUCUGUAUGUCAAGGAAAGGCAUGGCUGAUGCUCGUGCUUGUCACAACAGAGGAUUGAGCAUCA
B4: chr4:83276511:83276512:-_ENSG00000138668_ENST00000353341|hu_mus|FALSE|FALSE (ssRNA)
RNA: GGGAGUUCUACAGUCCGACGAUCCUUCACCACCUGUUGGGGAUAAGUUGCAAAUGGAAUAAUUUAGUAUGGUUUGUAGCUAUUUUGAUGUCCACCUCGCCUGGAUACUUUCCCAUAACCACUCUGCUGAUUGCUAUAAUCACCCAACAGAGGAUUGAGCAUCA
B5: 59843556_59845208_1259_CDS_ENSMUSG00000035469_ENSMUST00000043227|mouse|control|control (ssRNA)
RNA: GGGAGUUCUACAGUCCGACGAUCGUGCCCGCCUUGUGUCUUGGCAGCAGAUGUGUGGGUGGAGUGGCAAGCUGCAAUCUCUAUAACCCUUUCUUUUUCCACCAUGAUUUGUGUUGGGCUCAGCAGGUUAUUUUUACUUCCAGUCAACAGAGGAUUGAGCAUCA
B6: chr3:119450855:119450856:-_ENSMUSG00000028134_ENSMUST00000029780|mus_hu|mus_mus_mus_hu_False|48_78 (ssRNA)
RNA: GGGAGUUCUACAGUCCGACGAUCUGUGGUGCCACUAAGAGGAGUAUUUGCUGUCUGGACCGCUGUCACAGCUUGAAGAACUGCCUGCGCACGUUGGUUUAAUGUAUUAUCUGUCUUUAGUUCUUUGUGAUUCGAGUACUGGAUCAACAGAGGAUUGAGCAUCA
B7: 157883469_157883589_81_5pUTR_ENSMUSG00000026466_ENSMUST00000097527|mouse|control|control (ssRNA)
RNA: GGGAGUUCUACAGUCCGACGAUCGGGAGGCAGUUGAGAGUCGCCGGGGCCGCCGCCUGCGUCCUCGCUCGUGUGCCACCAACCAGCCUCCAGGCCCAUGGUGUGUCCUGAGGGCUGUCGGAGAGGCAGUGCCCGAGCUGGGUCCAACAGAGGAUUGAGCAUCA
B8: chr2:117093540:117093541:+_ENSMUSG00000027349_ENSMUST00000028825|mus_mus|FALSE|FALSE (ssRNA)
RNA: GGGAGUUCUACAGUCCGACGAUCCAAUGUGACUGUUGUCUUGGGCGACAGAGCAUAACGCUUGGGCUGGUAAAUUCUUGCUAUGUUAUCUGUUUUUGCCUUUGCUCUAUCGGACCAUCCAAAGGACUGCACUGUCACAUCCAACAACAGAGGAUUGAGCAUCA
B9: chr3:176767854:176767855:-_ENSG00000177565_ENST00000430069|hu_hu|hu_hu_hu_mus_False|68_88 (ssRNA)
RNA: GGGAGUUCUACAGUCCGACGAUCGACAUCCUUGUUACUGGGCACGUCUUGCCCUCCUUCCCGUAUGCAAUGUCUAAGCACGAGCUGCGUAGGGCCACUCGUGCUGUUCUCACUGAGGUUCCAGAUUCUUGCCGUGGAGUCUCCCAACAGAGGAUUGAGCAUCA
B10: 17772861_17772981_1224_3pUTR_ENSMUSG00000057614_ENSMUST00000074694|mouse|control|control (ssRNA)
RNA: GGGAGUUCUACAGUCCGACGAUCUUAUUCUUUAUGAUGACGUCUGUUACAGCAUCGAACACGAACUGCACGUUCUUCGUAUCUGUGGCGCACGUGAAGUGGGUGUAAAUUUCCUUUGUGUCCUUCCUUUUAUUGAGGUCUUCACAACAGAGGAUUGAGCAUCA
B11: chr7:56130949:56130950:+_ENSG00000146731_ENST00000540286|hu_hu|FALSE|FALSE (ssRNA)
RNA: GGGAGUUCUACAGUCCGACGAUCUCACUGGAUAAAAGACCUGCUUUAUGUGUAUACACUUCAGUGCAAUUUUUAAAAAUACUAUAAUUUCAGAACUUCCAAAUUUCAACAGAUGCCAGUGUUCUCUCCUUUUUUCAUAUGGGACAACAGAGGAUUGAGCAUCA
B12: chr3:41417089:41417090:+_ENSMUSG00000025764_ENSMUST00000026865|mus_mus|FALSE|FALSE (ssRNA)
RNA: GGGAGUUCUACAGUCCGACGAUCAACCAAGGAAGUGCCCAUUUGUUUCCUGAAGAAUGCAGAAUGCCAUUUCAAGUCCUCUAUCUUGGGAGCAUUGGGGCCCACAGAAGGACUGUUGAAAAAAAGCAUGUUCUCCAGUGCGGACAACAGAGGAUUGAGCAUCA
B13: chr11:77336104:77336105:-_ENSG00000074201_ENST00000525064|hu_mus|hu_hu_hu_mus_False|1_108 (ssRNA)
RNA: GGGAGUUCUACAGUCCGACGAUCCUCGCACAUUGCAGUGAACAUCGCCUCCAAUGCUGACUUAUCACUGGGCACAAAUCGAAAUUCAGAAAUGGGUUCAACAUCAUCAUUGUCUUCCUCAUCUUCAUCAGAGAGAGCAGGUUCCAACAGAGGAUUGAGCAUCA
B14: 83822515_83822635_1918_3pUTR_ENSMUSG00000034940_ENSMUST00000092834|mouse|control|control (ssRNA)
RNA: GGGAGUUCUACAGUCCGACGAUCUGCUGCUGGACAAGGGGCUGGGACUCACUUCCUCCCUGAGGGCUUCAUACUUGUCACUUGCUUUUGGCUCAGAUGAAAUGGAGCUGUUACCGAAAGCCAUAAAAUCUGCAAAGUCGUCCUCAACAGAGGAUUGAGCAUCA
B15: 21758683_21758803_1091_3pUTR_ENSMUSG00000047368_ENSMUST00000052556|mouse|control|control (ssRNA)
RNA: GGGAGUUCUACAGUCCGACGAUCAAAUUUACCAGUUCCUGUGACACGAACUGUUUUAACCUCUCAAGGUAUUGUCCAUAAAGCUCCACGUCAUUGUGUCCUGCCCCUUCAACCCACAGGGGCUCCACAGGUCUUUGGCAGCGCCAACAGAGGAUUGAGCAUCA
B16: chr6:168291551:168291552:+_ENSG00000130396_ENST00000400822|hu_hu|FALSE|FALSE (ssRNA)
RNA: GGGAGUUCUACAGUCCGACGAUCGUGUUUCUUGGUUUUCUUUGGGAUGUGGUCUGGUGGCCUCCUCUUCAACUGAAAGACUAAAAUCCCUUUGUCACUUGGCCAUUCCCUGAAGAUUUGUAAAGGACACUCAUCAUCAUCAAGCAACAGAGGAUUGAGCAUCA
B17: chr2:47387770:47387771:-_ENSG00000143933_ENST00000272298|hu_hu|motif|central (ssRNA)
RNA: GGGAGUUCUACAGUCCGACGAUCAAGGUUUUAGGACAAUGACAGUAAGAUAAGGGAAGAAAACAUGGAGGAAUGAAGUCCGGAUUACUAUACAUGCAUAUUUUUUUGACAGUAGGGAGAAACCUUUUACAGAUAAGUUACAAACAACAGAGGAUUGAGCAUCA
B18: chr21:30248746:30248747:-_ENSG00000156239_ENST00000303775|hu_mus|motif|central (ssRNA)
RNA: GGGAGUUCUACAGUCCGACGAUCGAGCGAUUGUUCAGCUGCCGGCAGCUCUUGUUUACUUCUGUGGCUUUCAGGACACGGGGACUUGCUGAACCUGAGGACUGACAGGGCUUCUUGGCCUGCUUGCCUGCAAAGUGCUGUGGUCAACAGAGGAUUGAGCAUCA
B19: chr2:198351390:198351391:-_ENSG00000144381_ENST00000345042|hu_hu|hu_hu_hu_mus_False|8_108 (ssRNA)
RNA: GGGAGUUCUACAGUCCGACGAUCUCAUUCUCACUCUCCACAGAAAGGCUGCUUCUGAACUCUCAUGUGGUGACACAGCGCUACAGUCCUGAUGCUCACAGAACAGUAGAGAUGCCUCAGUGAUUUAUUAAGUUGAAAGGACACCAACAGAGGAUUGAGCAUCA
B20: chr11:77336104:77336105:-_ENSG00000074201_ENST00000525064|hu_mus|hu_hu_hu_mus_False|8_8 (ssRNA)
RNA: GGGAGUUCUACAGUCCGACGAUCCUCACACAUUGCUGUGAACAUCGCCUCCAAUGCUGACUUAUCACUGGGCACAAAUCGAAAUUCAGAAAUGGGUUCAACAUCAUCAUUGUCUUCCUCAUCUUCAUCAUCAGCAAGUUCUUUCAACAGAGGAUUGAGCAUCA
B21: 9157977_9165565_1793_CDS_ENSMUSG00000033499_ENSMUST00000091829|mouse|control|control (ssRNA)
RNA: GGGAGUUCUACAGUCCGACGAUCGCUUGUAAACUUCUCUUCUCUUUUCUUCCGAUAGCCAAAGGAAUUUUUCCUUCCUCUCCCUAAACCAGGAGAGGAUUCAAGACUACUUGGCUCCACACGCCCAGUUCCAAUCUCUCUCUUCAACAGAGGAUUGAGCAUCA
B22: chrX:119680447:119680448:-_ENSG00000158290_ENST00000371322|hu_mus|FALSE|FALSE (ssRNA)
RNA: GGGAGUUCUACAGUCCGACGAUCAAACAAAAAAAUGCUCCUGAUCAUUAUCAUUUGCCUACAGUGGUUUUGCCAGCAUCUAUCGAUCUUUUUGAGAAAAAGAACACUAUCCAAUGAAUCUUCUCUGAACUGAUGAAUCUGUGCCAACAGAGGAUUGAGCAUCA

Each binder was assayed against T1, UNK ZnF1-3 (assay: nsRBNS (natural sequence RNA bind-n-seq); RBNS binding buffer (assumed for nsRBNS): 25 mM Tris pH 7.5, 150 mM KCl, 3 mM MgCl2, 0.01% Triton X-100, 500 ug/ml BSA, 20 U/ml SUPERase-In, 4 C; UNK is unkempt and MSI1 is Musashi-1; names of the RNAs are library labels; protein concentration not given here; high values mean tight binding).

| Binder | binding signal |
| --- | --- |
| B1 | 0.546 enrichment R |
| B2 | 3.22 enrichment R |
| B3 | 0.874 enrichment R |
| B4 | 0.939 enrichment R |
| B5 | 0.635 enrichment R |
| B6 | 0.744 enrichment R |
| B7 | 0.476 enrichment R |
| B8 | 0.375 enrichment R |
| B9 | 0.471 enrichment R |
| B10 | 0.421 enrichment R |
| B11 | 2.03 enrichment R |
| B12 | 1.18 enrichment R |
| B13 | 1.17 enrichment R |
| B14 | 1.22 enrichment R |
| B15 | 0.988 enrichment R |
| B16 | 0.692 enrichment R |
| B17 | 1.45 enrichment R |
| B18 | 1.14 enrichment R |
| B19 | 1.52 enrichment R |
| B20 | 1.01 enrichment R |
| B21 | 0.663 enrichment R |
| B22 | 1.15 enrichment R |
